Results as given in PubChem BioAssay AID2147 (National Center for Advancing Translational Sciences (NCATS), 2009).
Hit rate of the full screen: of about 230,000 compounds, about 3,600 (1.6%) were called active. Inconclusive results, whose numbers are uncertain, are shown with a selection of clear calls. Calls follow the shape of the dose curve; as a rule, active = well fitted inhibition curve with a large enough effect (not every such curve was filed as active); inconclusive = small, poorly fitted or top-dose-only effect, or another doubt; inactive = no such curve, though single readings can be large or run the other way. Where the call is inconclusive, the potency comes from a doubtful curve fit.

The molecules below were run against Lysine-specific demethylase 4E (Homo sapiens) (UniProt B2RXH2) (assay: qHTS Assay for Inhibitors of Human Jumonji Domain Containing 2E (JMJD2E)). Conditions: JMJD2E catalytic domain, FDH-coupled NADH fluorescence (FDH is formaldehyde dehydrogenase); series mostly up to 57.1 µM; activity change, negative = inhibition: at the top concentration.
Also: nearly all actives have a fitted effect of over 50% in size.
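For activity change, negative = inhibition in this document: 0% = wells with enzyme and -100% = buffer wells without enzyme.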
Potency is read from the fitted curve at half-maximal effect; tags tell the direction and shape of the fitted curve.

UniProt B2RXH2, sequence (B2RXH2 whole entry, looked up, the tested form may be a part): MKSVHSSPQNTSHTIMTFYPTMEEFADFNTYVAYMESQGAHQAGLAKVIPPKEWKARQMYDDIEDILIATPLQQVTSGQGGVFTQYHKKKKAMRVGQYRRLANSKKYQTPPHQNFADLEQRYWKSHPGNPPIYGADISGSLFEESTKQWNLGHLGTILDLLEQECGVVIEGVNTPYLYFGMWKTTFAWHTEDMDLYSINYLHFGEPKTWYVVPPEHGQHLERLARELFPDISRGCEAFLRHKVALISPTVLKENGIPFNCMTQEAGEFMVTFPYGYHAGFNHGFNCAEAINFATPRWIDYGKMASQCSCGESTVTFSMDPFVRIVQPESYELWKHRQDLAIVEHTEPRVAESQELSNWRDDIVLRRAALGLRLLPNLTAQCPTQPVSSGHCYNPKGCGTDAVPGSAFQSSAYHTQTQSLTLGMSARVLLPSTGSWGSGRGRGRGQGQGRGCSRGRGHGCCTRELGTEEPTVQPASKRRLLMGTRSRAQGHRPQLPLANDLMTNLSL

Structure (SMILES)	activity change, negative = inhibition	Potency
NS(=O)(=O)c1ccc(CCNC(=O)c2cccnc2)cc1	inactive: 2.73%	
CC(C)(C)c1cc(C(=O)O)n[nH]1	inactive: -5.38%	
Cc1ccc(OC(=O)c2ccc(N3CCOCC3)c([N+](=O)[O-])c2)cc1	inactive: -5.73%	
Cc1cc(C)n2nc(-c3ccco3)nc2n1		inconclusive: 28.2 µM [inhibitor, partial curve]
COCCCNC(=O)c1c(N)n(-c2ccc3c(c2)OCO3)c2nc3ccccc3nc12		inconclusive: 14.1 µM [inhibitor, partial curve]
CCC(=O)N1C2=C(c3ccccc3[C@@H]1CC(=O)Nc1ccc3ccccc3c1)[C@@H]1C(=O)N(c3ccccc3)C(=O)[C@@H]1[C@H](C)C2	inactive: -1.5% [at 11.4 µM]	
O=c1c2c(-c3ccccc3)csc2ncn1/N=C/c1c2ccccc2cc2ccccc12	inactive: 4.02%	
N#Cc1ccccc1-c1ccc2ncnc(N3CCNCC3)c2c1		inconclusive: 28.2 µM [inhibitor, single point]
Cn1nc(C(=O)NCCOc2ccccc2)c2ccccc2c1=O	inactive: -4.54%	
O=C(Nc1cc(S(=O)(=O)N2CCCCC2)ccc1O)c1ccccc1NS(=O)(=O)c1ccc(F)c(F)c1		inconclusive: 28.2 µM [inhibitor, single point]
COc1ccc2cc(C(=O)COC(=O)COc3ccc4c(C)cc(=O)oc4c3)ccc2c1		inconclusive: 14.1 µM [inhibitor, partial curve]
Brc1ccc([C@H]2CN3CCSC3=N2)cc1		active: 11.2 µM
C=CC[C@H](N)C(=O)O	inactive: -1.73%	
CCOc1ccc(-n2c(SCC(N)=O)nc3sc4c(c3c2=O)CCN(C)C4)cc1		inconclusive: 39.8 µM [inhibitor, single point]
CCn1c(COc2ccccc2C)nnc1SCC(=O)CC(=O)Nc1ccccc1		inconclusive: 35.5 µM [inhibitor, single point]
CC(C)C(=O)NNC(=O)c1csc(-c2cccs2)n1		inconclusive: 31.6 µM [inhibitor, single point]
COCCn1c(N)c(N(Cc2ccccc2)C(=O)c2ccc3ccccc3c2)c(=O)[nH]c1=O		inconclusive: 39.8 µM [inhibitor, single point]
Cc1cc(C)nc(NS(=O)(=O)c2ccc(NC(=O)Nc3ccccc3F)cc2)n1	inactive: -0.0014%	
Cc1ccc(-c2nc(SCC(=O)Nc3ccccc3OC(F)F)c3c(C)c(C(=O)O)sc3n2)cc1		inconclusive: 28.2 µM [inhibitor, partial curve]
Cc1ccc(NC(=O)CCNC(=O)c2ccco2)cc1F		inconclusive: 35.5 µM [inhibitor, single point]
Cc1nc(NCc2ccccc2)c(C(N)=O)c2c1COC(C)(C)C2		inconclusive: 31.6 µM [inhibitor, partial curve]
CCOC(=O)C1=C(C)OC(N)=C(C#N)C1c1cc2cc(C)ccc2nc1N1CCCCC1 (stereo not given)		inconclusive: 28.2 µM [inhibitor, partial curve]
C=CCN1C(=O)CS/C1=N\N=C\c1cccc([N+](=O)[O-])c1	inactive: 5.67%	
Cc1cc([N+](=O)[O-])nn1CC(=O)N1CCc2ccccc2C1	inactive: 2.44%	

Structure (SMILES)	activity change, negative = inhibition	Potency
O=C(C1CC(c2ccc(F)cc2)=NO1)N1CCCc2ccccc21 (stereo not given)	inactive: 5.14%	
c1cnc2c(c1)ncc1cscc12		inconclusive: 25.1 µM [inhibitor, partial curve]
CC(C)(C)Cc1nnc(NS(=O)(=O)c2ccccc2)s1	inactive: -2.09%	
O=C(Nc1nc(-c2cccs2)c(-c2ccccc2)s1)c1ccco1		inconclusive: 28.2 µM [inhibitor, partial curve]
Cc1cc(N/N=C/c2ccc(O)cc2)nc(NS(=O)(=O)c2ccccc2)n1		inconclusive: 35.5 µM [inhibitor, single point]
CC(C)(C)NC(=O)c1nc2nc(-c3ccccc3)cc(C(F)(F)F)n2n1		inconclusive: 22.4 µM [inhibitor, partial curve]
O=C(O)C1CCN(C(=O)c2csc(-c3ccc4c(c3)CCO4)n2)CC1		inconclusive: 22.4 µM [inhibitor, partial curve]
COc1ccc(-n2nnnc2-c2cccc(OC)c2)cc1	inactive: -0.845%	
Cc1nc2ncnn2c(N2CCCC(C(=O)Nc3ccc4c(c3)CCC4)C2)c1C (stereo not given)		inconclusive: 39.8 µM [inhibitor, single point]
CCOc1ccc(N2C(=O)C3C(c4ccccc4)=NN(c4ccccc4)C3C2=O)cc1 (stereo not given)		inconclusive: 28.2 µM [inhibitor, partial curve]
Cc1cc2c(C)c(C)c(=O)[nH]c2cc1N		inconclusive: 28.2 µM [inhibitor, partial curve]
COC(=O)c1c(C(=O)OC)n(CCCN)c2ccc(C)cc12		inconclusive: 31.6 µM [inhibitor, partial curve]
O=C(Nc1ccc2nc(-c3cccs3)[nH]c2c1)c1ccco1		inconclusive: 31.6 µM [inhibitor, single point]
O=C(CCSc1ccccc1)Nc1nnc(-c2cccs2)o1		inconclusive: 39.8 µM [inhibitor, single point]
CCOC(=O)c1cnc2ccccc2c1Nc1cccc(C(=O)O)c1		inconclusive: 39.8 µM [inhibitor, single point]
Cc1nc(/C=C/c2ccccc2)cc(/C=C/c2ccccc2)n1		inconclusive: 11.2 µM [inhibitor, partial curve]
COc1ccc(S(=O)(=O)N(Cc2ccccc2)c2ccccc2C(=O)Nc2ccccc2C(=O)NCc2ccco2)cc1		inconclusive: 35.5 µM [inhibitor, single point]
c1ccc(C2=Nc3ccccc3NC(c3ccccc3)C2)cc1 (stereo not given)		inconclusive: 17.8 µM [inhibitor, single point]
O=C(Nc1ccc(N2CCN(c3ccc(C(F)(F)F)cn3)CC2)nc1)c1cccs1		inconclusive: 39.8 µM [inhibitor, single point]
N=C1C(c2nc3ccccc3c(=O)[nH]2)=C(O)CN1CCc1ccccc1		inconclusive: 31.6 µM [inhibitor, partial curve]
Cc1ccc(/C=N/NC(=O)c2n[nH]c3c2CCCC3)cc1		inconclusive: 1.41 µM [inhibitor, full curve, poor fit]
CCS(=O)(=O)c1ccc(O)c(NC(=O)c2cc(OC)c(OC)c(OC)c2)c1	inactive: 2.14%	
O=C(Nc1ccc(OC(F)(F)C(F)F)c(NC(=O)c2cccc(F)c2)c1)c1cccc(F)c1	inactive: -16.7%	
Cc1cc(C(=O)CN2CCCCC2)c(C)n1-c1ccc(F)cc1		inconclusive: 20 µM [inhibitor, single point]

Structure (SMILES)	activity change, negative = inhibition	Potency
Cc1cc(C)nc(Nc2ccc(N3CCCC3)cc2)n1		inconclusive: 17.8 µM [inhibitor, partial curve, poor fit]
COC(=O)c1c(NC(=O)Cc2cccs2)sc2c1CCCC2		inconclusive: 39.8 µM [inhibitor, single point]
CCCc1cc(=O)[nH]c(SCC(=O)Nc2cc3c(cc2C(C)=O)OCO3)n1		inconclusive: 31.6 µM [inhibitor, single point]
Nc1ncc(Br)cc1S(=O)(=O)NCCC(=O)N1CCN(c2ccccn2)CC1		inconclusive: 39.8 µM [inhibitor, single point]
COc1cc(/C=N/Nc2nc(C)nc3c2cnn3-c2ccccc2)ccc1O		inconclusive: 28.2 µM [inhibitor, partial curve]
NNC(=O)c1sc(-c2ccc(Cl)cc2)cc1N		inconclusive: 31.6 µM [inhibitor, single point]
CCN(CC)C(=O)C1CCN(CC2CC=CCC2)CC1 (stereo not given)		inconclusive: 35.5 µM [inhibitor, single point]
O=C(O)c1ccccc1C(=O)c1ccc2c(c1)N(Cc1cccc(F)c1)C(=O)CO2		inconclusive: 39.8 µM [inhibitor, single point]
O=C1C2C3C=CC(C3=C3CCCCC3)C2C(=O)N1Cc1ccccc1 (stereo not given)	inactive: -22.2%	
CCOC(=O)c1cc2c(=O)n3ccccc3nc2n(CCCOC)c1=NC(=O)c1cccnc1	inactive: -5.18%	
O=C1CCCC/C1=C/Nc1cccc(C(F)(F)F)c1	inactive: 14.3%	
C=CCNC(=O)C(C#N)c1nc2ccccc2nc1N1CCCCCC1 (stereo not given)		inconclusive: 31.6 µM [inhibitor, partial curve]
O=S(=O)(CCN(CCS(=O)(=O)C(F)(F)F)CC1CCCO1)C(F)(F)F (stereo not given)	inactive: -1.98%	
Cc1nc(-c2cccs2)sc1C(=O)O		inconclusive: 20 µM [inhibitor, partial curve]
COC(=O)c1ccccc1NC(=O)Nc1ccc(C(=O)N2CCCC2)cc1		inconclusive: 28.2 µM [inhibitor, single point]
CCOC(=O)c1nc2cc3n(c(CC(C)C)c-2c1C)CC(C)=C3C		inconclusive: 28.2 µM [inhibitor, partial curve]
CCn1cc(C(=O)Nc2sc(C)c(C)c2C(=O)OC)cn1		inconclusive: 35.5 µM [inhibitor, single point]
O=C(O)[C@@H]1[C@@H]2C[C@H]3c4[nH]c5ccccc5c4CCN3C[C@@H]2CC[C@@H]1O		inconclusive: 11.2 µM [inhibitor, partial curve]
COc1ccc(OC)c(NC(=O)CCN2CCN(c3ccccc3F)CC2)c1	inactive: -9.08%	
CC(C)OC(=O)c1cc(NC(=S)Nc2ccc([N+](=O)[O-])cc2)cc(C(=O)OC(C)C)c1		inconclusive: 22.4 µM [inhibitor, partial curve]
O=C(COC(=O)C1CC1)Nc1ccc2c(c1)OCO2	inactive: -3.25%	
Cc1nn2c(NCCCn3ccnc3)cc(C(C)C)nc2c1-c1ccccc1		inconclusive: 28.2 µM [inhibitor, partial curve]
